# Hit rate of the full screen: of about 310,000 compounds, about 18,000 (5.8%) were called active. This list was built around the results that the source calls inconclusive (neither active nor inactive); the mix of calls is not that of the screen. The call rests on the fitted dose curve; in most records, active means well fitted inhibition curve with a large enough effect; inconclusive means small, poorly fitted or top-dose-only effect, or another doubt; inactive means no such curve, though single readings can be large or run the other way. No potency is given beside an inconclusive call; the fits are too rough.
# Assay: Primary qHTS for delayed death inhibitors of the malarial parasite plastid, 48 hour incubation
# Details: P. falciparum luciferase growth in erythrocytes; series mostly up to 28.7 µM; activity change, negative = inhibition: at the top concentration
# Text: The goal of this screen is to discover new antimalarial compounds that act by inhibiting the development of the apicoplast in the malarial parasite Plasmodium falciparum. The biochemical processes that make this organelle essential for erythrocytic stage parasites are not well understood. However, antibiotics such as azithromycin and tetracycline, which target the apicoplast translational machinery, have a potent antimalarial effect.
# We have developed a cell-based assay that measures parasite growth based on the expression of an integrated copy of a firefly luciferase reporter. To detect small molecules that cause this "delayed death" phenotype, erythrocytes infected with the luciferase-expressing parasites were incubated with compounds for either one or two generations, corresponding to 48 and 96 hours, respectively. Compounds that inhibit parasite growth in the second generation, but not the first, should be enriched in antimalarials that target the apicoplast. Growth inhibition is detected by a decrease in luciferase activity.
# Assay Provider: David Fidock and Eric Ekland, Columbia University
# Keywords: NIH Roadmap, MLPCN, MLI, MLSMR, qHTS, NCGC, qHTS, malaria, luciferase, viability
# Four microliters of culture medium (RPMI 1640 with 0.5% w/v Albumax (GIBCO), 24 mM sodium bicarbonate and 10 ug/mL gentamycin) were dispensed by a Multi-drop Combi into white solid 1536-well plates (Grenier) and 23 nL compound was added by a pin tool. Four microliters of infected erythrocytes (2% hematocrit, 0.1% parasitemia final concentration) in culture medium were dispensed and the plates incubated for 48 hours at 37 C in 5% CO2. Two microliters of luciferase detection reagent was added and luminescence was detected by a ViewLux (PerkinElmer) reader.
# On the % scale 0 is the no-effect control and ±100 the full control effect; potency means the concentration at half of the fitted maximal effect; tags describe the fitted curve by direction and shape.
Structure (SMILES),"activity change, negative = inhibition",Potency
COc1ccc(/C=C2/SC(=S)N(CCCC(=O)Nc3ccc(O)cc3)C2=O)cc1OC,inactive: -14.4%,–
COc1ccccc1NC(=O)COC(=O)CC(C)(C)CC1=NS(=O)(=O)c2ccccc2N1,–,"inconclusive [inhibitor, single point]"
COc1ccc(NC(=O)Nc2nnc(Cc3ccccc3)s2)cc1,–,"inconclusive [inhibitor, partial curve, poor fit]"
COc1ccc(/C=C2\CCC(C3CCCC3)C2=O)cc1 (configuration not stated),inactive: 225%,–
O=C(O)CCC(=O)N1CCC(n2nnc3cc(C(F)(F)F)ccc32)CC1,–,active: 2.08 µM
O=C(CCl)Nc1ccc(N=Nc2ccccc2)cc1,–,active: 4.65 µM
COC(=O)c1ccc(CNCC(=O)Nc2ccc(C(=O)OC)cc2)cc1,–,"inconclusive [inhibitor, single point]"
CC(C)(C)CC(C)(C)NC(=S)Nc1ccc2nc(-c3ccccn3)c(-c3ccccn3)nc2c1,–,"inconclusive [inhibitor, single point]"
COCCCNC(=S)N(Cc1ccccc1)Cc1ccccc1,–,"inconclusive [inhibitor, partial curve, poor fit]"
Cc1ccc(C2c3c(-c4ccccc4O)n[nH]c3C(=O)N2Cc2ccncc2)cc1 (configuration not stated),–,"inconclusive [inhibitor, partial curve]"
CCOc1ccc(C(=O)NCC(=O)NCCCn2nc(C)cc2C)cc1OCC,–,"inconclusive [inhibitor, single point]"
CC(=O)N1CCc2cc(S(=O)(=O)NCCC(=O)NCCc3ccc(C)cc3)ccc21,–,"inconclusive [inhibitor, single point]"
CCOc1[nH]n(-c2ccc(Cl)cc2)c(=O)c1C=Nc1ccc(O)cc1,–,"inconclusive [inhibitor, full curve, poor fit]"
Cc1cccc2cc(C3CC(c4cccs4)=NN3S(C)(=O)=O)c(Cl)nc12 (configuration not stated),–,"inconclusive [inhibitor, full curve, poor fit]"
CC[C@@]12C(=O)N(c3cccc(F)c3)C(=O)N1[C@H](c1ccc(Cl)cc1)[C@@H]1C(=O)N(C3CCCCC3)C(=O)[C@@H]12,–,"inconclusive [inhibitor, single point]"
CCOc1ccccc1OCCCNCc1ccco1,inactive: -9.8%,–
CC(C)c1ccc(/C=C/C(=O)NC2CCCCC2)cc1,–,"inconclusive [inhibitor, single point]"
Cc1ccc(S(=O)(=O)NCC(=O)N2CCOCCOCCOCC2)cc1,inactive: 16.3%,–
CCOC(=O)c1cc(-c2ccco2)nc2c1c(C)nn2-c1cccc(Cl)c1,inactive: -12.4%,–
COc1ccc(N2CCN(CC(O)c3c[nH]c4ccc(OC)cc34)CC2C)cc1 (configuration not stated),–,"inconclusive [inhibitor, partial curve, poor fit]"
O=C(c1cc(S(=O)(=O)N2CCOCC2)ccc1F)N1CCCc2ccccc21,–,"inconclusive [inhibitor, partial curve, poor fit]"
COc1ccc(/C=N/NC(=O)c2ccccc2)cc1OS(=O)(=O)c1ccccc1,–,active: 9.28 µM
O=S(=O)(c1ccc(SCc2ccc(Br)cc2)nc1)N1CCCCC1,–,"inconclusive [inhibitor, single point]"

Structure (SMILES),"activity change, negative = inhibition",Potency
CCOc1nc(SCCOc2ccc(C)cc2)nc(N(C)C)n1,–,active: 9.28 µM
CC(C)N=c1scc(-c2ccco2)n1/N=C/c1ccc(O)c(O)c1,–,"inconclusive [inhibitor, single point]"
Cc1cc(C)c(O)c(-c2cc(C(=O)Nc3c(C)n(C)n(-c4ccccc4)c3=O)[nH]n2)c1,inactive: 6.11%,–
N#Cc1ccccc1S(=O)(=O)N1CCN(c2nc(-c3cccnc3)nc3ccccc23)CC1,–,active: 9.28 µM
C/C=C/c1ccc(OCC(=O)Nc2cc(C(F)(F)F)ccc2N2CCOCC2)c(OC)c1,–,"inconclusive [inhibitor, single point]"
CC(=C/C(=O)O)/C=C/c1cccs1,inactive: -1.57%,–
Cc1ccc(S(=O)(=O)NCCC2(C(C)C)CCOC(C)(C)C2)cc1 (configuration not stated),–,"inconclusive [inhibitor, single point]"
O=C(NNc1ccc(C2CCCCC2)cc1)C(O)(c1ccccc1)c1cccs1 (configuration not stated),–,"inconclusive [inhibitor, partial curve, poor fit]"
COc1ccc(NC(=O)C2CC(c3ccccc3O)=NO2)cc1OC (configuration not stated),inactive: 0%,–
Cn1c(SCc2nnc(-c3ccccc3)o2)nc2ccccc21,inactive: -9.78%,–
O=C(NCc1ccccc1)c1ccccc1NC(=O)C1CCCCC1,–,"inconclusive [inhibitor, single point]"
CS(=O)(=O)N(CC(=O)Nc1ccccc1C(=O)NCc1ccccc1)c1ccc2c(c1)OCCO2,–,"inconclusive [inhibitor, single point]"
Cc1cccc(N(C(=O)c2cnc3n(c2=O)CCS3)C2CCCCC2)c1,inactive: 7.56%,–
CCCN(C(=O)c1cc(S(=O)(=O)N(C)c2ccc(OCC)cc2)ccc1C)C1CCS(=O)(=O)C1 (configuration not stated),–,"inconclusive [inhibitor, single point]"
CC(=O)Nc1cccc(NC(=O)CSc2ccc3nnc(CCNC(=O)c4ccccc4)n3n2)c1,inactive: -6.44%,–
O=C(Nc1ccccc1)c1ccc(NC(=O)C2CC2)cc1,inactive: 104%,–
COC(=O)c1[nH]c2ccc(C)cc2c1NC(=O)C(C)N1CCN(C2CCCCC2)CC1 (configuration not stated),–,"inconclusive [inhibitor, single point]"
CC(=O)NC(c1ccc([N+](=O)[O-])cc1)c1c(O)ccc2ccccc12 (configuration not stated),–,"inconclusive [inhibitor, single point]"
O=C(O)C1CC=CCC1C(=O)Nc1ccc2c(c1)CCC2 (configuration not stated),inactive: 5.72%,–
COc1cc2c(cc1OC)[C@H](C)N(C(=O)COc1ccccc1)CC2,–,"inconclusive [inhibitor, partial curve]"
O=C(O)c1ccc(N=Nc2c(O)[nH]c3ccccc23)cc1,–,"inconclusive [inhibitor, full curve, poor fit]"
COc1ccc([C@@H]2[C@@H]3C(=O)N(C(C)(C)C)C(=O)[C@@H]3[C@]3(Cc4ccccc4)C(=O)N(c4ccc(Br)cc4)C(=O)N23)cc1,–,active: 4.15 µM
CCCN1C(=O)/C(=C/c2c(N3CCNC(=O)C3CC(=O)OCC)nc3c(C)cccn3c2=O)SC1=S (configuration not stated),–,"inconclusive [inhibitor, single point]"

Structure (SMILES),"activity change, negative = inhibition",Potency
Cc1nnc(SCC(=O)Nc2nccs2)o1,–,"inconclusive [inhibitor, partial curve]"
COc1ccc(Nc2nnc(-c3ccc(C(=O)NCCO)cc3)c3ccccc23)cc1,–,"inconclusive [inhibitor, partial curve, poor fit]"
CC1=C(C#N)c2nc(N)c(C#N)c(C)c2/C1=C\c1ccc(OCC(=O)O)c(Cl)c1,inactive: -3.41%,–
COc1ccccc1N1C(=O)C2C(C(=O)c3ccccc3)=NN(c3ccc(C)cc3)C2C1=O (configuration not stated),–,"inconclusive [inhibitor, single point]"
COc1ccc(C(=O)NN)cc1COc1ccc(Br)cc1,–,"inconclusive [inhibitor, single point]"
CCOC(=O)CSc1nc2c(sc(=S)n2Cc2ccco2)c(=O)n1-c1ccccc1,–,"inconclusive [inhibitor, partial curve, poor fit]"
CCN1C(Nc2ccccc2)=NC[C@@H]1CC(C)C,inactive: 12.6%,–
Cc1ccc(SCc2cc(=O)[nH]c(Nc3nc(C)c4cccc(C)c4n3)n2)cc1,–,"inconclusive [inhibitor, single point]"
CCOc1cc(N2CCOCC2)c(OCC)cc1NC(=O)COC(=O)/C=C/c1ccc(OC(F)F)cc1,–,"inconclusive [inhibitor, single point]"
CC(=O)Nc1ccc(NC(=O)CSc2cn(CC(=O)N3CCOCC3)c3ccccc23)cc1,–,"inconclusive [inhibitor, partial curve, poor fit]"
Cc1cccc(Cl)c1NC(=O)N1CCCN(c2nc3ccc(Cl)cc3s2)CC1,–,"inconclusive [inhibitor, single point]"
COc1ccc(N=C2SCC(c3ccc([N+](=O)[O-])cc3)=NN2CCO)cc1,–,"inconclusive [inhibitor, single point]"
COc1cc(C=O)ccc1OCCCCOc1ccccc1[N+](=O)[O-],inactive: 15.5%,–
CCn1c(C)cc(/C=C2/NC(=O)N(CC(=O)Nc3cccc(C)c3)C2=O)c1C,–,"inconclusive [inhibitor, single point]"
Cc1ncc(CN2CCCC(C(=O)Nc3ccc(-c4cccc(F)c4)cc3)C2)cn1 (configuration not stated),–,"inconclusive [inhibitor, partial curve]"
CC(C)(C)CN1CCNC(=O)C1CC(=O)NCCc1ccccc1F (configuration not stated),inactive: -13.7%,–
S=C(c1ccc(-c2ccc(Cl)cc2Cl)o1)N1CCCC1,–,"inconclusive [inhibitor, full curve, poor fit]"
COC(=O)c1ccc(C23CC4(C2)[C@H](CN(Cc2ccc(-c5ccccc5)cc2)[C@@H]4c2ccccc2)C3c2ccc(Cl)nc2)cc1 (some centres not stated),–,active: 11.7 µM
O=C(C[N+]12CCC(CC1)C(CO)C2)c1ccc(Br)cc1 (configuration not stated),inactive: -14.1%,–
COc1ccc(CCn2c(N)c(S(=O)(=O)c3cccs3)c3nc4ccccc4nc32)cc1OC,–,active: 9.28 µM
Cc1ccc(NC(=O)N2CCC(C(=O)NCc3ccccc3)CC2)cc1,–,"inconclusive [inhibitor, single point]"

# Source: PubChem BioAssay AID504832 (National Center for Advancing Translational Sciences (NCATS), 2011)
